In this assay the target is T1, recombinant human BMP-2 protein (human, UniProt P12643 283-396).
T1 construct: Bought reagent; also called bone morphogenetic protein-2
T1 sequence (looked up): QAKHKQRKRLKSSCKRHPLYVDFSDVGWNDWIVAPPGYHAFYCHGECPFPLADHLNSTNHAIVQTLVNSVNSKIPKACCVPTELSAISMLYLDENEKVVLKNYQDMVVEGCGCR
As to the kind of experiment: ELISA, BMP-2 coated on plate, ACVR1-Fc titrated, anti-human IgG Fc-AP detection. On the procedure:
Dilutions of the fusion protein (3× serial dilution) were prepared in binding solution of TBST with 1% BSA. The blocking solution was decanted, and 50 μl/well of the 3× serial dilution of the fusion protein was added. The plate was placed in thermostat at 37° C. for 1 hr. After the fusion protein solution was decanted, the ELISA plate was washed three times with TBST, and then 50 μl/well of the secondary antibody (alkaline phosphatase-conjugated goat-anti-human IgG Fc antibody, Jackson ImmuneResearch) was added to react in thremostat at 37° C. for 1 hr. The developing antibody was removed, and to the ELISA plate, 200 μl/well TBST wash solution was added. The plate was then placed on a horizontal rotator at 100 rpm for 5 minutes, after which, the wash solution was decanted. The process was repeated five times. To the ELISA plate, 50 μl/well antibody developing solution (PNPP) was added. The ELISA plate was placed in thermostat at 37° C., and was read at 405 nm.
A general note: An ELISA detects its analyte on a solid surface through an enzyme-linked reagent.

Our source for the EC50 values is US20190062402A1 (SHANGHAI KANDA BIOTECHNOLOGY, published 2019).

B1: ACVR1-Fc fusion protein (Fc fusion)
chain: MEDEKPKVNPKLYMCVCEGLSCGNEDHCEGQQCFSSLSINDGFHVYQKGCFQVYEQGKMTCKTPPSPGQAVECCQGDWCNRNITAQLPTKGKSFPGTQNFHLE[here human IgG1 Fc without letters]
notes: The signal peptide is left out here; also called ACVR1-Fc protein; the fusion protein
As for B1, the EC50 – broadly, the concentration that produces a half-maximal response – stood at 420 nM.
